Test results reported in paper PMC4336329 (PLoS ONE, 2015).
In all, about 310,000 compounds went through this assay and about 14,000 (4.5%) showed an effect of 50% or more. Effects have a minus sign here. This is one part of the list.

molecular target: human ether-à-go-go-related gene (hERG) potassium channel (human, UniProt Q12809); test: primary screen, population patch clamp on CHO cells stably expressing hERG
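Note: peak tail current of the secondary pulse compared with the same well before compound.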

Sequence of human ether-à-go-go-related gene (hERG) potassium channel (Q12809 whole entry, looked up): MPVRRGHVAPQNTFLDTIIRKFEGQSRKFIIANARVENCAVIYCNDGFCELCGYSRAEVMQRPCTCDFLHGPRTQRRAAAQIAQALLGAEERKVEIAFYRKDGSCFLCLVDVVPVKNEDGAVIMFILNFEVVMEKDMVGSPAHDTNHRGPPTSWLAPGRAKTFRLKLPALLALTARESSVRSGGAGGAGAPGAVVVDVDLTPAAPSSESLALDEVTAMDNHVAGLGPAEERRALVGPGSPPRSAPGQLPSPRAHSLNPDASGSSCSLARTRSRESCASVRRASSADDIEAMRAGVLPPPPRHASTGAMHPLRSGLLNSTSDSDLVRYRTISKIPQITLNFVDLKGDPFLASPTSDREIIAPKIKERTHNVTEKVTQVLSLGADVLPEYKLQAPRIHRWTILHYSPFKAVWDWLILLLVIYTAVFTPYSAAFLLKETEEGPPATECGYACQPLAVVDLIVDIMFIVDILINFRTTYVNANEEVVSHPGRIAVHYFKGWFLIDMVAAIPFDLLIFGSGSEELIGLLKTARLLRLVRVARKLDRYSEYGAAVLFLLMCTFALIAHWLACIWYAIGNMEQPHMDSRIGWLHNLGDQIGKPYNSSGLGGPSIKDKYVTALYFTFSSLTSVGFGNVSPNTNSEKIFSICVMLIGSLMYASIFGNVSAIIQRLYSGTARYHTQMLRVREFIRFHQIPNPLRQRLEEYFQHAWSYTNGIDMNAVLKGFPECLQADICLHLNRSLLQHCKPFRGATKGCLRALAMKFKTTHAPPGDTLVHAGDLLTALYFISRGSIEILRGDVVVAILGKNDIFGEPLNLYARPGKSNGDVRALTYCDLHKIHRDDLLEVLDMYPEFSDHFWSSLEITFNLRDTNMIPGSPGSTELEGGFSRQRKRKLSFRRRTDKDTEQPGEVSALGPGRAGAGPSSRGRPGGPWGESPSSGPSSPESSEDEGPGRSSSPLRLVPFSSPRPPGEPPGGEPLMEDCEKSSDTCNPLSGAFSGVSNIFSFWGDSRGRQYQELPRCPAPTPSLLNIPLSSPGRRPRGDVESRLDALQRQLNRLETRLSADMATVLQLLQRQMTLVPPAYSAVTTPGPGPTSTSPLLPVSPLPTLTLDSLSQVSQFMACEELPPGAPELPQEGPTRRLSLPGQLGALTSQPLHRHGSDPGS

| Compound | hERG current change (%, negative = inhibition) at 10uM [%] |
| --- | --- |
| O=C1c2ccccc2C(=O)N1CCCc1nc2ccccc2c(=O)n1CCCn1ccnc1 | -65 |
| COc1cccc(OC)c1C(=O)N1CCOCC1 | 7.81 |
| CC(=O)Nc1sc2c(c1C(c1ccc(F)cc1)N1CCOCC1)CCCC2 (stereo not drawn) | -14.8 |
| N#CC1=C(S)N(c2ccccc2)C(c2ccc(-c3cccc(Cl)c3)o2)NC1=O (stereo not drawn) | 12.7 |
| COc1ccc(NC(=O)CCCCCN2C(=O)c3cccc([N+](=O)[O-])c3C2=O)c(OC)c1 | 2.2 |
| Cc1c(C)n(CC(O)CNc2ccccc2)c2ccccc12.O=C(O)C(=O)O (stereo not drawn) | 23.1 |
| Cc1cc(=O)oc2c(C)c(OCC(=O)N3CCN(c4cccc(Cl)c4)CC3)ccc12 | -34.2 |
| N#CC1=C(N)OC2=C(C(=O)CCC2)C1c1ccsc1 (stereo not drawn) | -6.32 |
| COc1ccc(CNC(=O)Cc2c(C(=O)O)[nH]c3ccccc23)c(OC)c1 | 22.4 |
| Cc1nnc(NC(=O)c2ccc(F)c(S(=O)(=O)N3CCCCC3)c2)s1 | 7.2 |
| CC(=O)NC(=S)NNC(=O)C(c1ccccc1)c1ccccc1 | 28.8 |
| CC(C)C[C@H](NC(=O)OC(C)(C)C)C(=O)NCC1CCC(C(=O)N[C@@H](Cc2ccccc2)C(=O)O)CC1 (stereo partly drawn) | 14.4 |
| CCOC(=O)n1c(=O)n(Cc2c(Cl)cccc2Cl)c2ccccc21 | 0.418 |
| CCN(CC)CCCNC(=O)CSc1nc(C)cc(C)n1 | 9.14 |
| Cc1cc(OCCN2CCOCC2)nc2ccccc12.Cl | 7.2 |
| CCOC(=O)C1=C(c2ccccc2)Nc2ncnn2C1c1cccc(O)c1 (stereo not drawn) | 9.16 |
| COc1cccc(-c2nc(CS(=O)(=O)CC(=O)N3CCN(C)CC3)c(C)o2)c1 | 8.02 |
| CCC(c1nnc(SCC(=O)Nc2cccnc2Cl)n1-c1ccccc1)N(C)C (stereo not drawn) | 12 |
| COc1ccc(-c2nc(CS(=O)CC(=O)NC3CCCC3)c(C)o2)cc1 (stereo not drawn) | -16.4 |

| Compound | hERG current change (%, negative = inhibition) at 10uM [%] |
| --- | --- |
| CSc1ncc(CN2CCN(C3CCCC3)C(CCO)C2)cn1 (stereo not drawn) | -0.478 |
| COc1ccnc(Oc2ccccc2)c1-c1ncn[nH]1 | 15.1 |
| CN(CC(=O)NCc1ccccc1)Cc1ccc(Cl)cc1 | -22.9 |
| CC(c1nc2ccccc2n1Cc1ccccc1)N1CCCCC1 (stereo not drawn) | -65 |
| CCOC(=O)c1ccc(NC(=O)CCc2nc(-c3ccccc3Cl)no2)cc1 | 12.2 |
| COc1ccccc1S(=O)(=O)N1CCC(C(=O)O)(c2ccccc2)CC1 | 13.4 |
| Cc1ccc(CN=c2c([N+](=O)[O-])nn(-c3ccc(Cl)cc3)n2O)cc1 | -14.7 |
| COc1cc(NS(=O)(=O)c2ccc(NC(=S)NC(=O)c3ccco3)cc2)nc(OC)n1 | -4.76 |
| COC(=O)COc1ccc(/C=C2\SC(=O)N(CC(=O)Nc3ccccc3F)C2=O)cc1 | 14 |
| Cc1cc(NC(=O)OC(C)C)ccc1-c1ccc(NC(=O)OC(C)C)cc1C | 16.5 |
| CCNS(=O)(=O)c1cc(OC)ccc1OC | 5.41 |
| Cc1ccc(NC(=O)CCC(=O)NNC(=S)Nc2ccccc2)c(C)c1 | 12.4 |
| Cc1cccc(C)c1NC(=O)C1CCN(S(C)(=O)=O)CC1 | 3.64 |
| O=C(O)c1ccccc1NCc1cccnc1 | 9.99 |
| Cc1c(Cl)ccc(S(=O)(=O)N2CCN=C2c2ccccc2)c1Cl | 0.0154 |
| CCc1c(-c2ccccc2)nc2sc3c(c2c1N)CCCC3 | 13.6 |
| COc1ccc(NC(=O)CN2C(=O)COc3ccc(S(=O)(=O)N4CCOCC4)cc32)c(OC)c1 | 10.3 |
| COc1cccc(NC(=O)Nc2nnc(Cc3ccc(F)cc3)s2)c1 | 19 |
| COc1ccccc1Nc1nc(N)nc(CSC(=S)N2CC(C)CC(C)C2)n1 (stereo not drawn) | -9.46 |

| Compound | hERG current change (%, negative = inhibition) at 10uM [%] |
| --- | --- |
| CCC/C=N/NC(=O)c1[nH]c2c([N+](=O)[O-])cccc2c1C | 0.591 |
| O=C(CC1SC(=O)N(Cc2ccccc2)C1=O)Nc1nccs1 (stereo not drawn) | 3.22 |
| Clc1ccc(COc2ccccc2-c2ccnc3ncnn23)cc1 | -21.4 |
| Cc1ccc(C)c(CN2CCC(n3nccc3NC(=O)C3CCCC3)CC2)c1 | -69.9 |
| CC1(C(=O)NC2CCCCC2)CCC(=O)N1Cc1ccc2c(c1)OCO2 (stereo not drawn) | -5.82 |
| O=C1CCN(S(=O)(=O)c2ccccc2)CCN1CCOCc1ccccc1 | 5.32 |
| COC(=O)c1cn(C(=O)c2ccco2)c2ccccc12 | 3.16 |
| O=C(/C=C/c1ccccc1)N1CCN(c2c(Cl)cccc2[N+](=O)[O-])CC1 | -20.8 |
| CCOC(=O)N1CCN(C(=O)C2CCCN(S(=O)(=O)c3ccc(OCC)cc3)C2)CC1 (stereo not drawn) | -46.2 |
| CN1CC2([N+](=O)[O-])CC=C(Cl)C([N+](=O)[O-])(C1)C2 (stereo not drawn) | 16.2 |
| COc1ccccc1C/C(N)=N/OC(=O)/C=C/c1ccccc1 | -21.2 |
| CCCCN1C(=O)C(O)(CC(=O)c2c(C)coc2C)c2ccccc21 (stereo not drawn) | 3.63 |
| O=C(c1ccccc1)N1CCN(C(=O)c2cccnc2)CC1 | 9.88 |
| N/N=C(\Cc1cscn1)c1ccc(O)cc1O | 8.19 |
| COC(=O)[C@H](C)NC(=O)NCc1ccccc1F | 8.53 |
| CC(C)c1ccc(-c2nnn(Cc3nc4ccccc4s3)n2)cc1 | 9 |
| Cc1nn(Cc2ccccc2)c(C)c1C(=O)OCC(=O)c1cc(C)n(CC(F)(F)F)c1C | -2.57 |
| FC(F)(F)c1cc(-c2ccccc2)nc2nc(N3CCOCC3)sc12 | -4.29 |
| COc1ccc(Cn2ccnc2SCC(=O)Nc2cccc(NC(C)=O)c2)cc1 | 16.6 |
